Measured values: PubChem BioAssay AID1963576 (National Center for Advancing Translational Sciences (NCATS), 2024)
Hit rate of the full screen: of about 46,000 compounds, about 60 (0.1%) were called active. Roughly 3% stayed inconclusive and do not appear here. The call rests on the fitted dose curve; in most records, active means well fitted inhibition curve with a large enough effect; inconclusive means small, poorly fitted or top-dose-only effect; inactive means no such curve, though single readings can be large or run the other way. The list shows a part of the results.

test: Primary qHTS assay for Inhibitors of ovarian cancer metastasis using an organotypic tumor microenvironment (TME) model.; further: nearly all actives have a fitted effect of over 65% in size;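 on activity change, negative = inhibition: plate controls were DMSO wells for no effect and tomatine positive control wells for full effect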; conditions: SKOV3ip1-GFP adhesion/invasion on 3D omental model, fluorescence; series mostly up to 45.8 µM; activity change, negative = inhibition: at the top concentration
In short: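 qHTS, 4-pt dose (0.36-46 umol/L); SKOV3ip1-GFP, 1,200 cells/well, no FBS; primary omental fibroblast/mesothelial co-culture 48 h pre-grown; 2 h RT + 16 h 37 C; PBS wash, 4% PFA; GFP count 488/509 nm.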

Activity change, negative = inhibition, inactive:
COc1cccc(N2C(=O)C(CC(=O)Nc3cccc(F)c3)N(C(C)C)C2=O)c1 (stereo unspecified) 14.2%, CCOC(=O)c1c(NC(=O)CSc2cn(CCNC(=O)c3ccc(OCC)cc3)c3ccccc23)sc2c1CCCC2 7.81%, COc1ccccc1N1CCN(S(=O)(=O)c2ccc(-c3cc(C(F)(F)F)on3)s2)CC1 12.2%, CNS(=O)(=O)c1cn(CC(=O)Nc2ccc(OC)c(Cl)c2)cc1S(=O)(=O)NC 1.93%, O=C(CSc1nc2cc3ccccc3cc2[nH]1)Nc1cccc(C(F)(F)F)c1 -4.51%, CC(C)CCNC(=O)C(=O)Nc1c2c(nn1-c1ccccc1)CS(=O)(=O)C2 17.5%, CN(C(=O)CSc1nc2ncccc2o1)c1ccc(F)cc1 -23.5%, Cc1cc(F)ccc1Nc1nc2ccccc2n2nnnc12 -0.69%, CC(=O)NCCc1nc2ccccc2n1CCCCOc1ccc(Cl)cc1 -10.2%, COCc1cc(C)nc2sc3c(c12)NC(c1ccc(NC(C)=O)cc1)N(c1ccc(C)cc1)C3=O (stereo unspecified) 8.5%, COc1cccc(CNc2ncnc3onc(-c4ccc(F)cc4)c23)c1 0.822%, CC(=O)Nc1nonc1-c1nnc(SCC(=O)Nc2cc(C)ccc2C)n1-c1ccccc1 -4.51%, COc1ccccc1CCNC(=O)Cc1c(C)c2ccc(O)cc2oc1=O 1.61%, CCOC(=O)c1ccccc1NC(=O)N1CCN2CCCCC2C1 (stereo unspecified) 22.3%, COCc1cc(C)nc2sc3c(=O)n(-c4cc(C)ccc4C)nnc3c12 4.5%, COc1cccc2cc(-c3nc4sc(C(=O)Nc5ccc(F)cc5F)c(C)c4c(=O)[nH]3)c(=O)oc12 7.03%, C[C@]12CCC3=C4CCC(=O)C=C4CC[C@@H]3[C@H]1CC[C@@]2(O)CC#N -2.71%, Cc1ccc(OCC(=O)Nc2ccc(C(=O)OCc3cc(=O)n4nc(C5CC5)sc4n3)cc2)cc1 -7.45%, Cc1ccc(NC(=O)C(=O)NCC(c2cccnc2)N2CCN(C)CC2)cc1C (stereo unspecified) -18.8%, COc1ccc(CNc2nc3c(S(=O)(=O)c4ccccc4)nnn3c3ccc(Cl)cc23)cc1 2.06%, O=C1CCSC2(C(=O)N(Cc3ccc(F)cc3)c3ccccc32)N1c1ccccc1 (stereo unspecified) -7.95%, CCOC(=O)c1ccccc1NC(=O)CSc1ccc(-c2sc(-c3ccccc3)nc2C)nn1 1.73%, COc1ccc(OC)c(-c2nc(Nc3ccccc3C)sc2CC(=O)O)c1 -19.8%, COc1ccc(C2C(C(=O)Nc3ccccc3)=C(C)Nc3nc(-c4ccccc4)nn32)cc1OC (stereo unspecified) -27.3%, Cc1cc(C)n(-c2nc3ccccc3nc2Nc2cccc(C(F)(F)F)c2)n1 9.02%, COc1ccc(-c2nnc(Nc3ccc(OCC(N)=O)cc3)c3ccccc23)cc1 -27.9%, O=C(CSc1nc(=O)[nH]c2c1CCCC2)Nc1cc(C(F)(F)F)ccc1Cl -6.79%, Fc1ccccc1CNCCCSc1nnnn1-c1ccccc1 5.94%, COc1ccc(-n2cc(-c3ccccc3)c3c(SC(C)C(C)=O)ncnc32)cc1 (stereo unspecified) 2.27%, CCOC(=O)c1cccc(NC(=O)c2cc3c(Cl)nc4ccc(C)cc4c3s2)c1 -0.293%, COc1cccc(C(=O)Nc2ccccc2C(=O)OCc2cc(=O)n3nc(C)sc3n2)c1 16.2%, CC(C)c1ccc(NC(=O)C2CCCN(S(=O)(=O)c3ccc(Br)s3)C2)cc1 (stereo unspecified) 1.79%, CCc1ccc(CNC(=O)c2ccc3c(c2)nc2n3CCOC2)cc1 -12.4%, COc1ccc(-c2noc(C3CC(=O)N(c4ccc(C)c(F)c4)C3)n2)c(OC)c1 (stereo unspecified) 3.57%, COc1ccccc1CNC(=O)CSc1ncc2c(n1)-c1ccccc1N(Cc1ccc(C)cc1)S2(=O)=O 2.83%, Cc1ccc(C)c(NC(=O)C(C)n2c(=O)cc(C(F)(F)F)c3c(C)nn(C)c32)c1 (stereo unspecified) 0.94%, CCc1nnc(SCc2ccc(F)cc2Cl)c2cc3sccc3n12 3.03%, CC1CCC(NC(=O)c2ccc3c(c2)N(Cc2cccc(F)c2)C(=O)c2ccccc2S3)CC1 (stereo unspecified) -3.3%, COc1cc(OC)c(OC)cc1CN1CCc2nc(N3CCN(c4ncccn4)CC3)ncc2C1 4.22%, c1ccc(CNc2nc(NCc3ccccc3)c3ccccc3n2)cc1 -3.39%, COC(=O)c1cc2sccc2n1CC(=O)Nc1ccc(C)cc1C 0.408%, COc1cc2c(cc1OC)C(COc1ccc3c(C)cc(=O)oc3c1)N(C(=O)Cc1ccccc1)CC2 (stereo unspecified) -1.09%, CCN(C(=O)CCc1nc(-c2ccc(C)cc2)no1)c1cccc(Cl)c1 -5.14%, Cc1ccc(-c2nc(NC(=O)CSc3ccc4ccccc4n3)ns2)cc1 -7.79%, Cc1ccccc1NC(=O)c1nc(S(C)(=O)=O)ncc1N(Cc1ccco1)Cc1sccc1C -10.3%, Cc1ccccc1OCC(=O)Nc1ccc(C(=O)OCc2cc(=O)n3ccsc3n2)cc1 30%, Cc1ccc(S(=O)(=O)c2cn(Cc3ccccc3)c3cc(N4CCCC4)c(F)cc3c2=O)cc1 2.76%, COc1cccc(CNC(=O)c2ccc3nc(-c4ccccc4)c(-c4ccccc4)nc3c2)c1OC -4.52%, Cc1cc(C)c(Cn2c3ccccc3c3cnn(CC(=O)NCCC4=CCCCC4)c(=O)c32)c(C)c1 -8.19%, CCOc1ccccc1C(=O)NC1(C(F)(F)F)C(=O)Nc2c1c(=O)[nH]c(=O)n2-c1ccccc1 (stereo unspecified) 0.317%

outcome, inactive:
CCN(c1ccccc1)c1nnc(NC(=O)Nc2cccc(C(F)(F)F)c2)s1, O=c1c2ccccc2n(Cc2cccc(Cl)c2)c(=O)n1CCc1ccccc1, CCOC(=O)c1cc(OC(=O)c2cccc(C)c2)n(-c2ccccc2)n1, Cc1ccc(C)c(N2CCN(c3ncnc4onc(C)c34)CC2)c1, COc1ccc(NC(=O)c2oc3c(c2C)-c2nn(Cc4c(F)cccc4Cl)cc2CC3)c(OC)c1, CCOc1ccc(Nc2oc(/C=C/c3ccc(F)cc3)nc2C#N)cc1, CCc1ccc(NC(=O)c2cc3ccccn3n2)cc1, COc1ccc(NC(=O)C(=O)NCCc2ccccc2)cc1OC, CC(C)CCNC(=O)CN1C(=O)COc2ccc(S(=O)(=O)N3CCOCC3)cc21, CCN1CCN(C(=O)c2ccc3c(c2)N(Cc2cccc(Cl)c2)C(=O)c2ccccc2S3(=O)=O)CC1, Fc1ccc(-c2cc(-c3nc(-c4cccc(Cl)c4)no3)[nH]n2)cc1
